Here are results for 115 sequences from the BET-seq Pho4 binding data (Le et al. 2018).

Some of the results follow. Values were computed here from the reads of four pooled replicates and scatter widely.

The target of the experiment is T1, Pho4 (S. cerevisiae) (UniProt P07270).
T1 sequence: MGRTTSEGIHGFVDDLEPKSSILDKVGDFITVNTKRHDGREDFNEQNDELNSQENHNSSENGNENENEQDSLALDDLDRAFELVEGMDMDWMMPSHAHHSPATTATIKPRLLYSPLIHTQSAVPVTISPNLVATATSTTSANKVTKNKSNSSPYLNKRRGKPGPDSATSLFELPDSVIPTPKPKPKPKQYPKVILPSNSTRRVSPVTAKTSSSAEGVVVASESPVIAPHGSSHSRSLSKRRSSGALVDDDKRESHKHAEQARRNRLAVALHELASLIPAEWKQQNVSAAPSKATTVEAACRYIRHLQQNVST
Briefly: relative binding free energy (BET-seq); higher = weaker binding. The settings on record: reference: library average.
For the sequence GTAGCCACGTGGAGTT, the “relative binding free energy” value is -0.04 kcal/mol. For the sequence AAAATCACGTGTTTAT, the “relative binding free energy” value amounted to 0.21 kcal/mol. In the case of AGTCTCACGTGTTAGT, the “relative binding free energy” value stood at 0.17 kcal/mol. Turning to CAGGGCACGTGTGCTG, the “relative binding free energy” value is -0.13 kcal/mol. Turning to GGTCGCACGTGGATGT, the “relative binding free energy” value was 0.05 kcal/mol. As for TAGAGCACGTGGTGGA, the figure is -0.15 kcal/mol; as for TTTCTCACGTGGTGAG, 0.23 kcal/mol; as for TGGATCACGTGGATAA, 0.3 kcal/mol. For TGGATCACGTGCGTGG, the “relative binding free energy” value was -0.05 kcal/mol. Consider GATGTCACGTGGGACA, for which the “relative binding free energy” value was found to be 0.08 kcal/mol. For TTGCGCACGTGACAGG, the “relative binding free energy” value was determined as 0.06 kcal/mol. As for TATCTCACGTGTATGG, the figure is 0.25 kcal/mol; as for CGAGTCACGTGTTGAG, 0.12 kcal/mol. CGTTACACGTGGAATG: the “relative binding free energy” value came to 0.23 kcal/mol. Take GGATTCACGTGTTCTT: the “relative binding free energy” value stood at 0.29 kcal/mol. As for GCGTGCACGTGTTGGA, the figure is 0.04 kcal/mol; as for ATGCACACGTGGGGTT, -0.21 kcal/mol. For AGAAGCACGTGAGTTA, the “relative binding free energy” value came out at 0.24 kcal/mol. As for CGTTGCACGTGGGGTT, the “relative binding free energy” value is -0.15 kcal/mol. On to TGCCTCACGTGGGGCG, for which the “relative binding free energy” value was determined as 0.12 kcal/mol. In the case of GTAAACACGTGAGTGT, the “relative binding free energy” value came out at 0.22 kcal/mol. For the sequence GGAGTCACGTGTAGCT, the “relative binding free energy” value amounted to 0.21 kcal/mol. As to TTCTGCACGTGTGTGT, the “relative binding free energy” value was determined as 0.07 kcal/mol.

Turning to TGATTCACGTGGATGC, the “relative binding free energy” value came to 0.45 kcal/mol. The value for TCTCTCACGTGGGTGG was 0.06 kcal/mol; that for TCGAGCACGTGTGGTG was -0.09 kcal/mol.

Take TTTTTCACGTGTTCTG: the “relative binding free energy” value was found to be 0.31 kcal/mol. The value for TTTGGCACGTGCAGAA was -0.17 kcal/mol; that for TGGGTCACGTGAACGA was 0.31 kcal/mol. As for AGGATCACGTGTTTGT, the figure is 0.19 kcal/mol; as for CTGTTCACGTGTAATG, 0.2 kcal/mol.

AGTTTCACGTGCTTGT: the “relative binding free energy” value was found to be 0.28 kcal/mol. On to CGTATCACGTGTTTGA, for which the “relative binding free energy” value was 0.13 kcal/mol. For the sequence GATTTCACGTGCAGTT, the “relative binding free energy” value stood at 0.2 kcal/mol. As to AAGGGCACGTGTATAA, the “relative binding free energy” value was found to be 0 kcal/mol. In the case of GGTGTCACGTGTGGAG, the “relative binding free energy” value amounted to 0.17 kcal/mol. Turning to GGATACACGTGTTGTT, the “relative binding free energy” value is 0.12 kcal/mol. As to AGGGCCACGTGGTCGA, the “relative binding free energy” value was -0.05 kcal/mol.

For AGTGGCACGTGGAAGA, the “relative binding free energy” value is -0.07 kcal/mol.

As for GTTGGCACGTGTAATT, the “relative binding free energy” value worked out at 0.05 kcal/mol. On to TTATGCACGTGACGTA, for which the “relative binding free energy” value was determined as 0 kcal/mol. Turning to GAGGTCACGTGGGAGT, the “relative binding free energy” value came to 0.04 kcal/mol. As for TATGTCACGTGGGTCG, the “relative binding free energy” value is -0.15 kcal/mol. In the case of AGATACACGTGATGGT, the “relative binding free energy” value turned out to be 0.2 kcal/mol.

For AATGTCACGTGGCGGG, the “relative binding free energy” value was determined as 0 kcal/mol. On to GGTTGCACGTGATAAA, for which the “relative binding free energy” value was 0.11 kcal/mol. Turning to GGATTCACGTGTTGGG, the “relative binding free energy” value was found to be 0.35 kcal/mol. As for TTAAGCACGTGTTGGC, the figure is 0 kcal/mol.

Turning to TAAGTCACGTGGACTG, the “relative binding free energy” value came out at 0.07 kcal/mol.

Consider TAATGCACGTGTGCCG, for which the “relative binding free energy” value was determined as 0.14 kcal/mol.

Regarding AATATCACGTGTGTGC, the “relative binding free energy” value stood at 0.24 kcal/mol. For CGTCTCACGTGGTGTT, the “relative binding free energy” value came to 0.21 kcal/mol.

For the sequence TTTCACACGTGGTTTC, the “relative binding free energy” value came out at 0.21 kcal/mol. As for GGAGTCACGTGACATG, the figure is 0.32 kcal/mol; as for TTGTACACGTGCGTAG, -0.09 kcal/mol. As for AGGCTCACGTGGGCGG, the “relative binding free energy” value was found to be 0.02 kcal/mol.

For the sequence GATGACACGTGCTTGT, the “relative binding free energy” value was 0.05 kcal/mol. With GGGAACACGTGGCTGT, the “relative binding free energy” value is -0.08 kcal/mol. As for CGGTTCACGTGGGGGA, the figure is 0.11 kcal/mol; as for ACGCGCACGTGTGGTG, -0.16 kcal/mol. For the sequence TCAGTCACGTGGGAAG, the “relative binding free energy” value was -0.08 kcal/mol. Consider GATTGCACGTGTTATA, for which the “relative binding free energy” value was 0.03 kcal/mol. Turning to GTTGTCACGTGTGGAA, the “relative binding free energy” value is 0.08 kcal/mol. Consider TTAGACACGTGGCGGT, for which the “relative binding free energy” value amounted to 0 kcal/mol.

For TAGTCCACGTGGGGAT, the “relative binding free energy” value was -0.12 kcal/mol. In the case of TATGACACGTGGAAAT, the “relative binding free energy” value was determined as 0.26 kcal/mol. For AGGGGCACGTGGTCTA, the “relative binding free energy” value is -0.27 kcal/mol. On to TTTGTCACGTGAGGTT, for which the “relative binding free energy” value was determined as 0.33 kcal/mol.

Regarding TGTATCACGTGGCGGG, the “relative binding free energy” value is 0.04 kcal/mol. As for TGGTGCACGTGTCAGC, the figure is -0.03 kcal/mol. For TTGGCCACGTGAATTG, the “relative binding free energy” value was 0.28 kcal/mol. With TCGGTCACGTGAGTGC, the “relative binding free energy” value came to 0.22 kcal/mol. Regarding GGGCTCACGTGAAAGG, the “relative binding free energy” value came out at 0.35 kcal/mol.

As for GGGTTCACGTGATATT, the “relative binding free energy” value was determined as 0.44 kcal/mol. Regarding TTTTACACGTGGGGGC, the “relative binding free energy” value was found to be 0.04 kcal/mol. With CGATGCACGTGTGTGT, the “relative binding free energy” value was 0.04 kcal/mol. As for TTAATCACGTGTCATG, the figure is 0.01 kcal/mol; as for GATGTCACGTGAATTG, 0.22 kcal/mol. As for GATGTCACGTGGTTAG, the figure is 0.25 kcal/mol. For the sequence TAACGCACGTGTGTGT, the “relative binding free energy” value was -0.3 kcal/mol. Turning to TTGATCACGTGCAGTG, the “relative binding free energy” value amounted to 0.15 kcal/mol. For the sequence AGAGTCACGTGGTTGG, the “relative binding free energy” value turned out to be 0.06 kcal/mol. In the case of TGCGTCACGTGTATTG, the “relative binding free energy” value worked out at 0 kcal/mol. Regarding TTTTTCACGTGACTTT, the “relative binding free energy” value amounted to 0.36 kcal/mol.

In the case of ATTTCCACGTGTTGGT, the “relative binding free energy” value worked out at 0.04 kcal/mol.

With CTGGTCACGTGCGAGG, the “relative binding free energy” value is 0.11 kcal/mol. Turning to TTTGTCACGTGAGTTC, the “relative binding free energy” value came out at 0.38 kcal/mol. As to GTCGTCACGTGTGCTT, the “relative binding free energy” value came to 0.09 kcal/mol.

Take GGCCTCACGTGCGGGG: the “relative binding free energy” value came out at 0.04 kcal/mol. In the case of TTGGTCACGTGTCCTG, the “relative binding free energy” value is 0.14 kcal/mol.

In the case of TGGCTCACGTGGGTGT, the “relative binding free energy” value is 0.07 kcal/mol. On to AAAAGCACGTGGTGGC, for which the “relative binding free energy” value came out at 0.01 kcal/mol. For the sequence GGGTGCACGTGGACGC, the “relative binding free energy” value was -0.07 kcal/mol. In the case of TAGGGCACGTGCAGGG, the “relative binding free energy” value is -0.09 kcal/mol. GGATACACGTGATGTG: the “relative binding free energy” value came to 0.22 kcal/mol. The value for GTGTACACGTGCGGAG was -0.16 kcal/mol. Take GAAGTCACGTGGTTTG: the “relative binding free energy” value was 0.2 kcal/mol. With ATGGTCACGTGTGTTT, the “relative binding free energy” value came to 0.21 kcal/mol. CTTTTCACGTGGATGC: the “relative binding free energy” value turned out to be 0.35 kcal/mol. As for TAGAGCACGTGGGTAA, the figure is -0.31 kcal/mol. For the sequence TGAAGCACGTGGGGGT, the “relative binding free energy” value was -0.19 kcal/mol. As for AGCCGCACGTGGGGGC, the “relative binding free energy” value was -0.23 kcal/mol. Regarding TGTAGCACGTGTTCAT, the “relative binding free energy” value is -0.12 kcal/mol. TTGTTCACGTGCGGGC: the “relative binding free energy” value was determined as 0.27 kcal/mol. As for CGTGTCACGTGGGGAC, the figure is -0.16 kcal/mol; as for GAAGACACGTGAGTTT, 0.25 kcal/mol. In the case of GGGGTCACGTGCAACG, the “relative binding free energy” value turned out to be 0.22 kcal/mol.

For the sequence TGATACACGTGTGTGT, the “relative binding free energy” value is 0.05 kcal/mol. As for GCTGGCACGTGGAGTA, the “relative binding free energy” value was -0.12 kcal/mol. Take ATGGACACGTGTTTAT: the “relative binding free energy” value is -0.05 kcal/mol.

Consider GATGACACGTGGCATG, for which the “relative binding free energy” value was found to be 0.08 kcal/mol. On to TAAGGCACGTGAATAT, for which the “relative binding free energy” value came out at 0.13 kcal/mol.

In the case of CTGCTCACGTGATTGG, the “relative binding free energy” value was 0.32 kcal/mol. Consider GTTGGCACGTGGCAAG, for which the “relative binding free energy” value was -0.13 kcal/mol. Consider AAGGCCACGTGAGGGT, for which the “relative binding free energy” value amounted to 0.13 kcal/mol.
